In all, about 370,000 compounds went through this assay and about 150 (0.041%) were called active. The shares of active, inactive and inconclusive entries below differ from those in the screen. The call rests on the fitted dose curve; in most records, active means well fitted inhibition curve with a large enough effect; inconclusive means small, poorly fitted or top-dose-only effect; inactive means flat fitted curve, though single readings scatter. No potency is given beside an inconclusive call; the fits are too rough.
Each compound was assayed against Beta-lactamase (Escherichia coli (strain K12)) (UniProt P00811) (assay: qHTS Inhibitors of AmpC Beta-Lactamase (assay with detergent)). Settings: AmpC hydrolysis of nitrocefin, absorbance 480 nm, 0.01% Triton; activity change, negative = inhibition: at 114 µM (top of the series).
Outline: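 20 mM phosphate pH 7.0 + 0.01% (detergent screen) or 0.0001% Triton X-100; 5.3 nM AmpC reagent; cpd preinc 15 min RT; nitrocefin (800 uM stock) to start; A480 q20 s × 4 min; Activity was normalised to no-enzyme and no-compound control wells.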
Further: nearly all actives have a fitted effect of over 25% in size.
Potency means the concentration at half of the fitted maximal effect; tags describe the fitted curve by direction and shape.
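Wherever activity change, negative = inhibition is given: 0% = no-compound wells and -100% = no-enzyme wells.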

UniProt P00811, sequence (P00811 whole entry, looked up): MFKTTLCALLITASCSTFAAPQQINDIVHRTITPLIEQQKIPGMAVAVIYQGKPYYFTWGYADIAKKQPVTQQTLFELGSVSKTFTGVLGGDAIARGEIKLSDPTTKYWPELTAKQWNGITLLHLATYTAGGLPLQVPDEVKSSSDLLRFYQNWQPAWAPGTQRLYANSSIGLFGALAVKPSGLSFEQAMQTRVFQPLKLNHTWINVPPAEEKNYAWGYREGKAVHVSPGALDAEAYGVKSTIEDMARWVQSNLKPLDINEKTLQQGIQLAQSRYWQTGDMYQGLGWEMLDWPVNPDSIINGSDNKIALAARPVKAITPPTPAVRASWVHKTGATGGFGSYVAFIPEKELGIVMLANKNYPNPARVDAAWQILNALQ

SMILES | activity change, negative = inhibition | Potency
Cc1cccc(NS(=O)(=O)c2cccc(C(=O)N3CCN(S(=O)(=O)c4ccccc4)CC3)c2)c1 | inactive: -0.77% | 
COc1ccc(NC(=O)N2CCc3cc(OC)c(OC)cc3C2)cc1 |  | inconclusive [inhibitor, full curve, poor fit]
Cc1cc(N2C(=O)C(O)=C(C(=O)c3ccco3)C2c2cccc(Cl)c2)no1 (stereo not drawn) | inactive: 5.1% | 
Nn1c(SCC(=O)NC2CCCCC2)nnc1-c1ccc(Cl)cc1 |  | inconclusive [inhibitor, full curve, poor fit]
COCCCn1cnc2oc3nc4ccccc4nc3c2c1=O |  | inconclusive [inhibitor, full curve, poor fit]
NC(=O)C1CCN(C(=O)C2(NC(=O)Nc3cccc(F)c3)CCCCC2)CC1 |  | inconclusive [inhibitor, full curve, poor fit]
COc1ccc(-c2nc(C(=O)Nc3cccc(C(C)=O)c3)nn2-c2ccccc2Cl)cc1 | inactive: -3.02% | 
CC(C)[C@@H](C(=O)NC1CCN(Cc2ccccc2)CC1)N1C(=O)N2CCc3c([nH]c4ccccc34)[C@@]2(C)C1=O | inactive: 4.24% | 
COC(=O)c1ccc(OCc2nc(N)nc(N3CCOCC3)n2)cc1 |  | inconclusive [inhibitor, full curve, poor fit]
CC(=O)Nc1ccc(-c2csc(NC(C)c3ccccc3)n2)cc1 (stereo not drawn) | inactive: -7.89% | 
CCOc1ccc(C(=O)O/N=C(\N)c2ccccn2)cc1OCC | inactive: 1.46% | 
COc1ccccc1CNC(=O)C(=O)NCC(c1ccco1)S(=O)(=O)c1ccc(C)cc1 (stereo not drawn) | inactive: -0.787% | 
Cc1nc2ccc(-c3nc4cc(N)ccc4o3)cc2[nH]1 | inactive: -12.7% | 
O=C(Cn1nc(-c2ccco2)ccc1=O)Nc1cc(C(F)(F)F)ccc1Cl | inactive: 2.1% | 
CCOc1cc(C(=O)NCc2ccc3c(c2)OCO3)cc(OCC)c1OCC |  | inconclusive [inhibitor, full curve, poor fit]
CC(C)C1N=C2c3ccccc3N=C(SCC(=O)NCCc3ccc(S(N)(=O)=O)cc3)N2C1=O (stereo not drawn) |  | inconclusive [inhibitor, single point]
COc1ccc(NC2CCCN(C(=O)CCC3=NNC(=O)CC3)C2)cc1 (stereo not drawn) |  | inconclusive [inhibitor, partial curve, poor fit]
Cc1cccc(OCCc2c(C)[nH]c(=S)[nH]c2=O)c1 | inactive: 1.95% | 
O=C(CCNS(=O)(=O)c1cccs1)NCc1ccco1 |  | inconclusive [inhibitor, full curve, poor fit]
CCOC(=O)/C(C#N)=C/c1ccc(OC)c(OC)c1 |  | inconclusive [inhibitor, full curve, poor fit]
C=CCc1ccc(OC)c(OC)c1 |  | inconclusive [inhibitor, partial curve]
CCOc1ccc(NC(=O)C2C3C=CC4(CN(C(C(=O)OC)C(C)C)C(=O)C24)O3)cc1 (stereo not drawn) |  | inconclusive [inhibitor, full curve, poor fit]

SMILES | activity change, negative = inhibition | Potency
Cc1cc(-c2csc3ncnc(N4CCN(C)CC4)c23)cc(C)c1C |  | inconclusive [inhibitor, full curve, poor fit]
Cc1c(Nc2cc(=O)oc3ccccc23)c(=O)n(-c2ccccc2)n1C |  | inconclusive [inhibitor, full curve]
COC(=O)c1[nH]c2ccc(C)cc2c1NC(=O)CCN1CCN(Cc2ccc3c(c2)OCO3)CC1 |  | inconclusive [inhibitor, full curve, poor fit]
Cc1nn(Cc2noc(C(=O)NCc3ccccn3)n2)c(C)c1Br |  | inconclusive [inhibitor, full curve, poor fit]
O=C(O)C(C(O)c1ccccc1)[n+]1ccccc1 (stereo not drawn) |  | inconclusive [inhibitor, full curve]
C=CCC(=O)OCC(=O)Nc1ccc(Cl)cn1 |  | inconclusive [inhibitor, full curve, poor fit]
Cc1cc(C)cc(NCc2cc(=O)oc3cc(-c4ccccc4)c(O)cc23)c1 |  | inconclusive [inhibitor, full curve, poor fit]
COc1ccc2nc(NC(=O)CS(=O)(=O)Cc3ccccc3)sc2c1 | inactive: -7.24% | 
Cc1nnc(NC(=O)c2ccc(F)c(S(=O)(=O)N3CCCCC3)c2)s1 | inactive: -10.9% | 
COc1cccc(C(=O)N/N=C(/CCC(=O)O)c2ccccc2)c1 |  | inconclusive [inhibitor, full curve, poor fit]
O=C(Nc1ccnn1C1CCN(Cc2ccccn2)CC1)c1cccc(F)c1 |  | inconclusive [inhibitor, partial curve]
Cc1nc(C(C)NC(=O)CCc2nnc(CCCc3ccccc3)o2)c(C)s1 (stereo not drawn) | inactive: -0.456% | 
Cc1nc2sc(C(c3cccs3)N3CCC(C(N)=O)CC3)c(O)n2n1 (stereo not drawn) |  | inconclusive [inhibitor, full curve, poor fit]
CC1(C)CC2CC(C)(CN2S(=O)(=O)c2ccc(N)cc2)C1 (stereo not drawn) |  | inconclusive [inhibitor, full curve, poor fit]
O=C(CCNC(=O)c1ccccc1)Nc1ccc(F)c(Cl)c1 |  | inconclusive [inhibitor, partial curve, poor fit]
C=CCn1c(O)c(C=Nc2ccc(N(CC)CC)cc2)c(=O)[nH]c1=O |  | inconclusive [inhibitor, partial curve]
O=C(c1ccc(Cl)cc1)N1CCN(CCc2ccncc2)CC1 | inactive: 4.62% | 
Nn1c(SCC(=O)Nc2ccc(S(=O)(=O)N3CCCC3)cc2)nnc1C(F)(F)F |  | inconclusive [inhibitor, full curve]
Cc1cccc(CCNCc2cc3cccc(C)c3[nH]c2=O)c1 |  | inconclusive [inhibitor, single point]
CC(C)NC(=O)c1n[nH]c(=O)c2ccccc12 |  | inconclusive [inhibitor, full curve, poor fit]
Cc1cccc(C(=O)NCc2nnc3c4ccccc4c(-c4ccccc4)nn23)c1 |  | inconclusive [inhibitor, partial curve, poor fit]
